Measured values published in US20180057551A1 (AMYLONIX, published 2018).
Numbering of substitutions follows the chain as printed. Names may count otherwise.

B1: ABPP095-PP013 (designed binder)
chain: MAGGERVYLPNLNADQLCAFIRSLEDDPSQSANLLAEAKKLNDAQAPASSSSGSSSSGRASAGGERVYLPNLNADQLCAFIRSLEDDPSQSANLLAEAKKLNDAQAPKGAPGGGGSTSLAEAKEAANAELDSYGVSDFYKRLIDKAKTVEGVEALKDAILAALP
B2: ABPP095 with C-terminal His6 tag (designed binder)
chain: AGGERVYLPNLNADQLCAFIRSLEDDPSQSANLLAEAKKLNDAQAPASSSSGSSSSGRASAGGERVYLPNLNADQLCAFIRSLEDDPSQSANLLAEAKKLNDAQAPKHHHHHH
B3: ABPP095b-LEHHHHHH (designed binder)
chain: AGGERVYLPNLNADQLCAFIRSLEDDPSQSSELLSEAKKLSESQAPASSSSGSSSSGRASAGGERVYLPNLNADQLCAFIRSLEDDPSQSSELLSEAKKLSESQAPKLEHHHHHH
notes: scaffold mutated ABPP095
B4: ABPP095a-LEHHHHHH (designed binder)
chain: B3 chain with S31A, E32N, S35A, S43A, S91A, E92N, S95A, S103A
notes: scaffold mutated ABPP095
B5: ABPP095c-LEHHHHHH (designed binder)
chain: B3 chain with N12T, S22K, N72T, S82K
notes: scaffold mutated ABPP095
B6: ABPP035 with C-terminal His6 tag (designed binder)
chain: B2 chain with R5I, L8F, D14H, S30Q, G63R, R81N, L83I
B7: ABPP049 with C-terminal His6 tag (designed binder)
chain: B2 chain with L8F, P9T, R21Q, G63R, D74H, S90Q
B8: ABPP050 with C-terminal His6 tag (designed binder)
chain: B2 chain with R5I, R21Q, G63R, D74H, R81Q, S90Q
B9: ABPP070 with C-terminal His6 tag (designed binder)
chain: B2 chain with G3R, R81Q
B10: ABPP084 with C-terminal His6 tag (designed binder)
chain: B2 chain with L8F, P9T, S30Q, N32K, G63R
B11: ABPP018 with C-terminal His6 tag (designed binder)
chain: AGGEIVYFPNLNADQLCAFIRSLEDDPSQQANLLAEAKKLNDAQAPASSSSGSSSSGSSSSGRASAGRERVYLPNLNADQLCAFIRSLEDDQSQRANLLAEAKKLNDAQAPKHHHHHH
notes: (S4G)3 linker

Target: T1, human Aβ1-40 peptide (human, biotin at the C-terminus (flow cytometry, Examples 2-4) or at the N-terminus (SPR, ELISA); unlabeled plus Alexa488/Alexa647-labeled in FCS)
T1 construct: synthetic peptide (AnaSpec); one entry for all labelled forms, label named under assay; also called hAβ1-40; Aβ40
Test: SPR Biacore 2000, biotinylated peptide on SA chip, 1:1 Langmuir
Procedure: (§1) Kinetic constants were calculated from the sensorgrams using the Langmuir 1:1 model of BiaEvaluation software 4.1 (GE Healthcare).

| Binder | Kd |
| --- | --- |
| B1 | 2.7 nM |
| B2 | 0.5 nM |
| B3 | 13 nM |
| B4 | 4 nM |
| B5 | 2.3 nM |

Target: T2, human Aβ1-42 peptide (human, N-terminal biotin in SPR (Example 15); unlabeled in Example 7)
T2 construct: also called hAβ1-42
Test: as above
Procedure: as §1

| Binder | Kd |
| --- | --- |
| B1 | 2.3 nM |
| B2 | 0.33 nM |
| B3 | 15 nM |
| B4 | 5 nM |
| B5 | 2.6 nM |

Target: T1, human Aβ1-40 peptide
Test: SPR ProteOn XPR36, biotinylated Aβ1-40 on Neutravidin chip, 1:1 Langmuir

| Binder | Kd | koff | kon |
| --- | --- | --- | --- |
| B2 | 0.34 nM | – | – |
| B6 | 2.6 nM | 6.7e-05 s⁻¹ | 28000 M⁻¹ s⁻¹ |
| B7 | 1.15 nM | 0.00015 s⁻¹ | 130000 M⁻¹ s⁻¹ |
| B8 | 6.9 nM | 7.1e-05 s⁻¹ | 16000 M⁻¹ s⁻¹ |
| B9 | 0.59 nM | 4.2e-05 s⁻¹ | 72000 M⁻¹ s⁻¹ |
| B10 | 1.4 nM | 0.00015 s⁻¹ | 110000 M⁻¹ s⁻¹ |
| B11 | 0.97 nM | 8.8e-05 s⁻¹ | 91000 M⁻¹ s⁻¹ |

Target: T3, human serum albumin (human, UniProt P02768 25-609)
T3 construct: also called HSA; HSA-Sepharose
Test: capture on HSA-Sepharose, acid elution, reducing SDS-PAGE, silver stain

| Binder | binding result |
| --- | --- |
| B1 | binds |
